Data on 44 compounds can be found in publication PMC4336329 (PLoS ONE, 2015).

SMILES strings stand for the structures. Out of some 310,000 compounds screened, about 2,200 (0.71%) showed an effect of 50% or more. Effects have a minus sign here. The list shows a part of the results. Where a SMILES comes first, the peptide text is derived from it. [ ]: non-standard residue; d: D form. The star is where a group is joined. ξ: configuration not given here. ξF = NC(Cc1ccccc1)C(=O)O; Cbz = O=C(OCc1ccccc1)*

The target of this test is human ether-à-go-go-related gene (hERG) potassium channel (human, UniProt Q12809). As to the kind of experiment: primary screen, population patch clamp on CHO cells stably expressing hERG.
Sequence of human ether-à-go-go-related gene (hERG) potassium channel (Q12809 whole entry, looked up): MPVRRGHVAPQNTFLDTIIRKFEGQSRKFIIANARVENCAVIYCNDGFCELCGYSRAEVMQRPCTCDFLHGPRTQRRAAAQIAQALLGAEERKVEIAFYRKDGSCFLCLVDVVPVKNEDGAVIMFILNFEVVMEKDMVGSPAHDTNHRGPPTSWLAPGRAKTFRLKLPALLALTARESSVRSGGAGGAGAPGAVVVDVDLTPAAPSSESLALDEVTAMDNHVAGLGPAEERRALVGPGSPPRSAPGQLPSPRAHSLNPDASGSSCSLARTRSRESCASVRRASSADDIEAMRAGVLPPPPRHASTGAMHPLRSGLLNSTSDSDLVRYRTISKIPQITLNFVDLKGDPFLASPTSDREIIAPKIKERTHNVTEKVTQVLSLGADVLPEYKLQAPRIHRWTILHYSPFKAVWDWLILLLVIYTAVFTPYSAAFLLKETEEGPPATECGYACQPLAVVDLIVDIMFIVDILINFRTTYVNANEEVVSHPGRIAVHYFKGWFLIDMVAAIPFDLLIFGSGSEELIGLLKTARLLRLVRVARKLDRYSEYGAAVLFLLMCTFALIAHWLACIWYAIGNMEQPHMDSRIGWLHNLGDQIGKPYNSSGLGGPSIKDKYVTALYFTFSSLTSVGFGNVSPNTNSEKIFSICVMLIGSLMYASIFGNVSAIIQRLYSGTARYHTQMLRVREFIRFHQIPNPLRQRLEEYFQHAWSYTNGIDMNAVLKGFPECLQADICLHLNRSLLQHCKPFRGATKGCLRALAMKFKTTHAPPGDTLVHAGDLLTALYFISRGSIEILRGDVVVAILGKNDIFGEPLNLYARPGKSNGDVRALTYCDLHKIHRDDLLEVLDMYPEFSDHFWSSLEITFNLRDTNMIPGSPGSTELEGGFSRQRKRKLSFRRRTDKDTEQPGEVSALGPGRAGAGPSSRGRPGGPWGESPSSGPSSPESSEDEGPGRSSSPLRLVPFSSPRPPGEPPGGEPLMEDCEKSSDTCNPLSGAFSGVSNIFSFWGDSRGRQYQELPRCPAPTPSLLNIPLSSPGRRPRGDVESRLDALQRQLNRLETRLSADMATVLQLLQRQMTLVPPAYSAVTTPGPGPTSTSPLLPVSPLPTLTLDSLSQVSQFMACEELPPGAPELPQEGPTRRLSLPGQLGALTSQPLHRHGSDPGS
In the case of `Cn1c(=O)c2c(ncn2CC(=O)N/N=C/c2c[nH]c3ccccc23)n(C)c1=O`, the “hERG current change (%, negative = inhibition) at 1uM” value stood at 10.2%.

With `Nc1c(C(=O)Nc2ccccc2Cl)nnn1-c1ccc2c(c1)OCCO2`, the “hERG current change (%, negative = inhibition) at 1uM” value was found to be 16.1%.

In the case of `CC(C)(C)OC(=O)N[C@@H](Cc1ccccc1)c1nnc(S(=O)(=O)Cc2cccc(F)c2)o1`, the “hERG current change (%, negative = inhibition) at 1uM” value is on record as 12.4%.

In the case of `O=C1NC(=O)N(Cc2ccco2)C(=O)/C1=C/c1cccn1CCOc1ccccc1Cl`, the “hERG current change (%, negative = inhibition) at 1uM” value worked out at 5.64%.

With `Cc1cc(=O)[nH]c(SC/C=C/c2ccccc2)n1`, the “hERG current change (%, negative = inhibition) at 1uM” value is 10.4%.

With `Br.CN=c1sc(C(=O)Nc2cccc(Cl)c2)cc(=O)n1C`, the “hERG current change (%, negative = inhibition) at 1uM” value worked out at 2.47%.

In the case of `CCOc1cc(N2CCOCC2)c(OCC)cc1NS(=O)(=O)c1cc(NC(C)=O)ccc1OC`, the “hERG current change (%, negative = inhibition) at 1uM” value is on record as 11.6%.

Consider `CC(C)N(C(=O)Cn1cnc2cc([N+](=O)[O-])ccc2c1=O)C(C)C`, for which the “hERG current change (%, negative = inhibition) at 1uM” value turned out to be 5.54%.

`O=C(O)CNC(=O)C(Cc1ccccc1)NC(=O)OCc1ccccc1` (centres unmarked) (Cbz-[ξF]-Gly-OH): the “hERG current change (%, negative = inhibition) at 1uM” value is 14.4%.

Consider `O=Cc1c(NCc2ccccc2)c2ccccc2[nH]c1=O`, for which the “hERG current change (%, negative = inhibition) at 1uM” value is 12.6%.

As for `CCC(C(=O)NC1CCCCC1)n1c2ccccc2c2nc(=O)cc(C)n21` (centres unmarked), the “hERG current change (%, negative = inhibition) at 1uM” value was determined as 10.5%.

For the compound `O=C(Nc1ccccc1-c1nc2ccccc2s1)C1=COCCO1`, the “hERG current change (%, negative = inhibition) at 1uM” value is recorded as 7.31%.

For `CCc1cc(=O)oc2cc(C)cc(OCC(=O)NCC(O)c3ccccc3)c12` (centres unmarked), the “hERG current change (%, negative = inhibition) at 1uM” value came out at 6.19%.

Take `COc1ccc(CNC(=O)CSc2nc3cccnc3s2)cc1`: the “hERG current change (%, negative = inhibition) at 1uM” value was 7.12%.

As for `CCN(CC)CCNC(=O)C1c2ccccc2C(=O)N(CCOC)C1c1ccc(F)cc1` (centres unmarked), the “hERG current change (%, negative = inhibition) at 1uM” value turned out to be 15.4%.

For `COC(=O)CCC(=O)Oc1ccc(OC(=O)CCC(=O)OC)cc1`, the “hERG current change (%, negative = inhibition) at 1uM” value turned out to be 10.6%.

Consider `COc1ccc(OC(=O)c2cnn(-c3ccccc3)c2C)cc1`, for which the “hERG current change (%, negative = inhibition) at 1uM” value is recorded as 15.6%.

As to `O=C(CCSc1ccccc1)N1CCN(C(=O)c2ccco2)CC1`, the “hERG current change (%, negative = inhibition) at 1uM” value is 1.52%.

In the case of `O=C(c1n[nH]c(=O)c2ccccc12)N1CCN(S(=O)(=O)c2ccccc2Cl)CC1`, the “hERG current change (%, negative = inhibition) at 1uM” value is on record as -5.55%.

For the compound `COc1ccc(CCC(=O)N/N=C(\C)c2ccc3c(c2)OCO3)cc1`, the “hERG current change (%, negative = inhibition) at 1uM” value is recorded as 9.29%.

For the compound `N#Cc1ccc(NCC(=O)N2CCN(S(=O)(=O)c3ccccc3)CC2)cc1`, the “hERG current change (%, negative = inhibition) at 1uM” value is on record as -32.3%.

As to `O=C(C=C1CCN(c2ncc(C(F)(F)F)cc2Cl)CC1)NNC(=O)Nc1ccccc1`, the “hERG current change (%, negative = inhibition) at 1uM” value is reported as 2.66%.

Regarding `C=C(C)CSCc1nc2ccccc2[nH]1`, the “hERG current change (%, negative = inhibition) at 1uM” value was 18.6%.

With `Cn1cccc1C(=O)NC(=O)COC(=O)CNS(=O)(=O)c1ccc(Br)cc1`, the “hERG current change (%, negative = inhibition) at 1uM” value worked out at 5.34%.

Turning to `CN(Cc1nccn1C)C(=O)CC1C(=O)NCCN1Cc1ccc(F)cc1Cl` (centres unmarked), the “hERG current change (%, negative = inhibition) at 1uM” value is -2.2%.

Take `COC(=O)c1cc(Cl)c(N)cc1OC`: the “hERG current change (%, negative = inhibition) at 1uM” value is reported as -7.25%.

On to `Cn1cc(CN2CCN(Cc3ccc4c(c3)OCO4)CC2)c(-c2ccccc2F)n1`, for which the “hERG current change (%, negative = inhibition) at 1uM” value is 1.05%.

With `CCCCn1c(Nc2ccccc2)nc2ccccc21`, the “hERG current change (%, negative = inhibition) at 1uM” value was 17.1%.

Take `CCOc1ccccc1NC(=O)c1cc(=O)c2ccccc2o1`: the “hERG current change (%, negative = inhibition) at 1uM” value is recorded as 11.9%.

On to `COc1ccc(CCNC(=O)CSc2nnnn2-c2ccccc2OC)cc1OC`, for which the “hERG current change (%, negative = inhibition) at 1uM” value came to 7.6%.

For the compound `O=C(Nc1ccc(F)cc1)Nc1ccc([N+](=O)[O-])cn1`, the “hERG current change (%, negative = inhibition) at 1uM” value came to 14.9%.

For `CC(C)n1nccc1NC(=O)Nc1ccccc1`, the “hERG current change (%, negative = inhibition) at 1uM” value worked out at 17.6%.

Take `CC1(C)CCC(=O)N2CC[C@H]3C[C@H](OC(=O)Nc4ccccc4)C[C@@H]1[C@H]32`: the “hERG current change (%, negative = inhibition) at 1uM” value is on record as -2.07%.

Turning to `COc1ccc(CNC(=O)COC(=O)CCc2nc3ccccc3c(=O)[nH]2)cc1`, the “hERG current change (%, negative = inhibition) at 1uM” value came out at 0.808%.

As for `CCc1noc(C)c1C(=O)N1CCCSC1=Nc1ccccc1C(C)C`, the “hERG current change (%, negative = inhibition) at 1uM” value is recorded as 5.73%.

For `Cc1cccc(CS(=O)(=O)Cc2ccc(C(=O)NCc3cccnc3)o2)c1`, the “hERG current change (%, negative = inhibition) at 1uM” value is on record as 12.6%.

Regarding `CC1(C)CC(=O)C2=C(C1)Oc1nc3ccccc3cc1C2C(C#N)C#N` (centres unmarked), the “hERG current change (%, negative = inhibition) at 1uM” value is given as 13.4%.

As to `CCOC(=O)C1CCCN(S(=O)(=O)c2ccc(S(=O)(=O)N(CC)CC)cc2)C1` (centres unmarked), the “hERG current change (%, negative = inhibition) at 1uM” value amounted to 4.27%.

With `C=C1CSc2nc(=O)c3c4c(sc3n21)CCCC4`, the “hERG current change (%, negative = inhibition) at 1uM” value is -8.42%.

`O=C(C1CCCN(Cc2ccccc2F)C1)N1CCCCC1.O=C(O)C(=O)O` (centres unmarked): the “hERG current change (%, negative = inhibition) at 1uM” value amounted to 10.1%.

Regarding `CCc1nc(SCC(=O)c2cccs2)c2oc3ccccc3c2n1`, the “hERG current change (%, negative = inhibition) at 1uM” value came out at 12.7%.

As for `CCn1c(O)c(N=Nc2ccc(S(=O)(=O)N3CCOCC3)cc2)c(=O)n(CC)c1=S`, the “hERG current change (%, negative = inhibition) at 1uM” value was -1.96%.

Turning to `Cn1cccc1/C=N/n1c(-c2ccc(Cl)cc2Cl)n[nH]c1=S`, the “hERG current change (%, negative = inhibition) at 1uM” value was -14.9%.

With `Cc1onc(-c2c(Cl)cccc2Cl)c1C(=O)N1CCN(c2ncccn2)CC1`, the “hERG current change (%, negative = inhibition) at 1uM” value came to 9.25%.
